Experimental data taken from PubChem BioAssay AID1347073 (National Center for Advancing Translational Sciences (NCATS), 2019).
The whole screen tested about 45,000 compounds, of which about 200 (0.44%) were called active. Not shown: some 7% with an inconclusive outcome. Calls follow the shape of the dose curve; as a rule, active = well fitted activation curve with a large enough effect; inconclusive = small, poorly fitted or top-dose-only effect; inactive = no such curve, though single readings can be large or run the other way. This is one part of the list.

Test: qHTS of TDP-43 Inhibitors: NCGC Sytravon Library Screen; also: 0% is about no effect; nearly all actives have a fitted effect of over 55% in size
Settings: yeast TDP-43 toxicity rescue, BacTiter-Glo growth, 24 h; series mostly up to 46.1 µM; growth rescue (activation): at the top concentration
In short: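 TDP-43-expressing yeast, pregrown in raffinose, seeded at OD600 0.02 in galactose medium with compound for 24 hr at 30 deg C. Growth read by BacTiter-Glo luminescence, so rescue of toxicity appears as activation.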

SMILES	growth rescue (activation)
Cc1cccc(NS(=O)(=O)c2cc(C(=O)N3CCOCC3)ccc2Cl)c1	inactive: -15.4%
CC1CCCC(C)N1C(=O)COc1ccc(C(=O)N/N=C/c2ccc(C(=O)O)cc2)cc1 (stereo not given)	inactive: -0.75%
CCc1nnc(NC(=O)c2oc3ccc(Br)cc3c2C)s1	inactive: 13.6%
CNc1ccc(-c2ccccc2CO)cn1	inactive: 11.8%
COc1cccc(NC(=O)CN2C(=O)NC3(CCCC3)C2=O)c1	inactive: 10.5%
COc1ccc(-c2c(-c3ccc(OCC(=O)NN)cc3O)n[nH]c2C)cc1	inactive: 24.6%
COc1ccc(-c2cc(-c3n[nH]c(=S)n3-c3ccccc3Cl)[nH]n2)cc1	inactive: 4.2%
COc1cc(NC(=O)c2ccc(-c3cn[nH]c3)c3ccoc23)cc(OC)c1OC	inactive: 7.89%
CCOc1ccccc1C(C(=O)NC1CCCCC1)N(C(=O)c1csnn1)C1CC1 (stereo not given)	inactive: -4.07%
Cc1ccc(/C=C2\Oc3cc(OCC(=O)NN)ccc3C2=O)o1	inactive: 9.46%
CCNC(=O)N(C)c1c(CC)nc2ccc(C(=O)N3CCN(S(=O)(=O)CC)CC3)cn12	inactive: -1.71%
CC(=O)Nc1ccc(S(=O)(=O)Nc2cc(Cl)ccc2N2CCOCC2)cc1	inactive: 21.7%
COc1ccc(OC)c(NC(=O)c2cc3c(=O)n4ccccc4nc3n2C)c1	inactive: 13.1%
COC(=O)Cc1[nH]nc2c1C(C1C=CCCC1)C(C#N)=C(N)O2 (stereo not given)	inactive: 6.03%
N#CCCN(Cc1cccnc1)C(=S)NC(=O)c1ccccc1	inactive: 6.48%
Cc1ccc(S(=O)(=O)c2nc(-c3ccco3)oc2SC(C)C)cc1	inactive: -3.47%
CCOCCCNC(=O)c1cc(Sc2nnc(C)s2)nc2ccccc12	inactive: 10.6%
COCCCn1cnc2c(c1=O)c1nc3ccccc3nc1n2-c1ccccc1	inactive: 13.4%
O=C1COc2ccc(C(=O)COC(=O)COc3ccccc3[N+](=O)[O-])cc2N1	inactive: 4.09%
Cc1ccnc(NC(=O)CCC(=O)N(CC(=O)NCc2ccccc2)Cc2ccco2)c1	inactive: 14.4%
CCOC(=O)c1[nH]c(C)c(C(=O)OCCOc2cccc(C)c2)c1C	inactive: -3.43%
COc1cccc(OCc2nnc3n2N=C(c2ccccc2)C(CC(=O)O)S3)c1 (stereo not given)	inactive: 8.63%
COc1ccc(NC(=S)NCCCN2CCCC2)cc1	inactive: -1.51%
CCn1c(SCc2ccc(OC)c(F)c2)nc2ccccc2c1=O	inactive: -11.9%
NC(=O)c1cc(Cl)ccc1OCC(=O)N1CCCc2ccccc21	inactive: 9.81%
N#Cc1ccc(COC(=O)CC(NC(N)=O)c2ccc(Cl)cc2)cc1 (stereo not given)	inactive: 11.8%
CC(C)c1onc(C(=O)NC2CCCCC2)c1[N+](=O)[O-]	inactive: 10.7%
COc1ccccc1NC(=O)c1cc2c(s1)-c1ccccc1S(=O)(=O)C2	inactive: 14.2%

SMILES	growth rescue (activation)
CC(=O)Nc1ccc(S(=O)(=O)NCC(=O)NNC(=O)COc2c(C)cccc2C)cc1	inactive: 22.6%
COc1ccc(CN2C[C@@H](CO)O[C@@H](n3cnc4c(N5CCN(c6ccccc6)CC5)ncnc43)C2)cc1	inactive: 3.44%
CCc1nnc(NC(=O)[C@@H](NS(=O)(=O)c2ccc3c(c2)OCCO3)C(C)C)s1	inactive: 5.74%
COc1ccc(C2CC(c3ccccc3)=NN2C(=O)COC(=O)c2cccnc2Cl)cc1 (stereo not given)	inactive: 4.98%
Cc1cc(C#N)c2ccccc2n1	inactive: 8.33%
O=C(/C=C/c1ccco1)OCC1CCCN2CCCCC12 (stereo not given)	inactive: -4.07%
COc1cccc(NC(=O)CCSc2ccc(C)cc2)c1	inactive: 29.7%
COc1ccc(N(C(=O)c2snc(C(N)=O)c2N)C(C(=O)NC2CCCC2)c2ccc(F)cc2)c(OC)c1 (stereo not given)	inactive: 5.45%
CCCc1cc(=O)[nH]c(SCC(=O)N2CCOCC2)n1	inactive: -1.73%
O=C(CNC(=O)c1ccco1)NCc1ccc2c(c1)OCO2	inactive: 18.3%
O=C(Cc1ccccc1)N/N=C/c1ccc([N+](=O)[O-])s1	inactive: -7.13%
CCS(=O)(=O)c1ccc2oc(Nc3ccc(OC)c(OC)c3)nc2c1	inactive: 5.79%
CC(=O)Nc1ccc(N/C=C2/CCCC2=O)cc1	inactive: -9.48%
COc1cc(OC)c(OC)cc1/C=N/NC(=O)c1ccc2nc[nH]c2c1	inactive: -0.791%
O=C1NCCN(Cc2ccc(-c3ccccc3)cc2)C1CC(=O)N1CCN(CCO)CC1 (stereo not given)	inactive: -6.53%
Cc1ccc(S(=O)(=O)N2CCN(c3ccc([N+](=O)[O-])c4cccnc34)CC2)cc1	inactive: -0.593%
COc1ccc([N+](=O)[O-])cc1N(CC(=O)NCCC1=CCCCC1)S(C)(=O)=O	inactive: -2.64%
CC1CC(C)CN(CC(=O)NCCc2ccc(S(N)(=O)=O)cc2)C1 (stereo not given)	inactive: 12.2%
COc1ccccc1N1CCN(C(=O)Cc2c(C(=O)O)[nH]c3ccc(Cl)cc23)CC1	inactive: 1.76%
Cc1ccc(CCN2CC(C(=O)NCCN3CCOCC3)CC2=O)cc1 (stereo not given)	inactive: -9.41%
CCc1nc2c(OCC(=O)C(C)(C)C)cccn2c1N(C)C(=O)c1ccccc1F	inactive: 1.58%
Cc1ccc(-c2nn3cnnc3c3ccccc23)cc1	inactive: 20.2%
COc1nc(-c2ccccc2)c2c(c1C#N)CC(C)(C)OC2	inactive: 11%
Cc1cccc(N(C(=O)c2csnn2)C(C(=O)NCc2ccccc2)c2ccc(C)o2)c1 (stereo not given)	inactive: 16.3%
Cc1ccc(NC(=O)COC(=O)Cn2cnc3c2c(=O)n(C)c(=O)n3C)cc1	inactive: -1.89%
COc1ccc(C)cc1NC(=O)c1cc2c(s1)-c1ccccc1SC2	inactive: 23.7%
Cc1nn(C2CCS(=O)(=O)C2)c(Cl)c1/C=C/C(=O)OCC(=O)Nc1ccc2c(c1)OCO2 (stereo not given)	inactive: 13%
